{
  "source": "the supplement of paper PMC8728848",
  "binders": {"B1": {"name": "DC-ASGPR Long (Homo sapiens) (protein)", "chain": "MTRTYENFQYLENKVKVQGFKNGPLPLQSLLQRLRSGPCHLLLSLGLGLLLLVIICVVGFQNSKFQRDLVTLRTDFSNFTSNTVAEIQALTSQGSSLEETIASLKAEVEGFKQERQAGVSELQEHTTQKAHLGHCPHCPSVCVPVHSEMLLRVQQLVQDLKKLTCQVATLNNNASTEGTCCPVNWVEHQDSCYWFSHSGMSWAEAEKYCQLKNAHLVVINSREEQNFVQKYLGSAYTWMGLSDPEGAWKWVDGTDYATGFQNWKPGQPDDWQGHGLGGGEDCAHFHPDGGWNDDVCQRPYHWVCEAGLGQTSQESH"}},
  "experiment_in_all_cases": "glycan array binding signal (z-score within array); higher = stronger binding",
  "conditions_in_all_cases": "glycan notation: IUPAC condensed, linker removed",
  "key": {"[1]": {"molecular_target": "Fuc(a1-2)Gal(b1-4)[Fuc(a1-3)]GlcNAc", "summary_of_the_method": "(§1)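 Columns mapping to the same glycan were averaged after glycan names were converted to IUPAC-condensed notation. The data come from 3228 arrays in the Consortium for Functional Glycomics database, limited to those with an available protein sequence. Binding is reported as a within-array Z-score averaged across arrays of one protein sequence and across linkers.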"}, "[2]": {"molecular_target": "Fuc(a1-2)Gal(b1-4)[Fuc(a1-3)]GlcNAc(b1-2)Man(a1-3)[Fuc(a1-2)Gal(b1-4)[Fuc(a1-3)]GlcNAc(b1-2)Man(a1-6)]Man(b1-4)GlcNAc(b1-4)[Fuc(a1-6)]GlcNAc", "summary_of_the_method": "as §1"}, "[3]": {"molecular_target": "Fuc(a1-2)Gal(b1-4)[Fuc(a1-3)]GlcNAc(b1-2)[Fuc(a1-2)Gal(b1-4)[Fuc(a1-3)]GlcNAc(b1-4)]Man(a1-3)[Fuc(a1-2)Gal(b1-4)[Fuc(a1-3)]GlcNAc(b1-2)Man(a1-6)]Man(b1-4)GlcNAc(b1-4)GlcNAc", "summary_of_the_method": "as §1"}, "[4]": {"molecular_target": "Fuc(a1-2)Gal(b1-4)[Fuc(a1-3)]GlcNAc(b1-3)Gal(b1-4)[Fuc(a1-3)]GlcNAc", "summary_of_the_method": "as §1"}, "[5]": {"molecular_target": "Fuc(a1-2)Gal(b1-4)[Fuc(a1-3)]GlcNAc(b1-3)Gal(b1-4)[Fuc(a1-3)]GlcNAc(b1-3)Gal(b1-4)[Fuc(a1-3)]GlcNAc", "summary_of_the_method": "as §1"}, "[6]": {"molecular_target": "Fuc(a1-2)Gal(b1-4)[Fuc(a1-3)]GlcNAc(b1-3)GalNAc", "summary_of_the_method": "as §1"}, "[7]": {"molecular_target": "Fuc(a1-2)Gal(b1-4)[Fuc(a1-3)]GlcNAc(b1-3)[Neu5Ac(a2-6)Gal(b1-4)GlcNAc(b1-6)]Gal(b1-4)Glc", "summary_of_the_method": "as §1"}, "[8]": {"molecular_target": "Fuc(a1-2)Gal3S(b1-4)GlcNAc", "summary_of_the_method": "as §1"}, "[9]": {"molecular_target": "Fuc(a1-2)Gal6S(b1-3)GlcNAc", "summary_of_the_method": "as §1"}, "[10]": {"molecular_target": "Fuc(a1-2)Gal6S(b1-3)GlcNAc6S", "summary_of_the_method": "as §1"}, "Fuc(a1-2)Gal6S(b1-4)Glc": {"molecular_target": "Fuc(a1-2)Gal6S(b1-4)Glc", "summary_of_the_method": "as §1"}, "[11]": {"molecular_target": "Fuc(a1-2)Gal6S(b1-4)Glc6S", "summary_of_the_method": "as §1"}, "Fuc(a1-2)[Gal(a1-3)]Gal": {"molecular_target": "Fuc(a1-2)[Gal(a1-3)]Gal", "summary_of_the_method": "as §1"}, "[12]": {"molecular_target": "Fuc(a1-2)[Gal(a1-3)]Gal(b1-3)GalNAc", "summary_of_the_method": "as §1"}, "[13]": {"molecular_target": "Fuc(a1-2)[Gal(a1-3)]Gal(b1-3)GalNAc(b1-3)Gal(a1-4)Gal(b1-4)Glc", "summary_of_the_method": "as §1"}, "[14]": {"molecular_target": "Fuc(a1-2)[Gal(a1-3)]Gal(b1-3)GlcNAc", "summary_of_the_method": "as §1"}, "[15]": {"molecular_target": "Fuc(a1-2)[Gal(a1-3)]Gal(b1-3)GlcNAc(b1-2)Man(a1-3)[Fuc(a1-2)[Gal(a1-3)]Gal(b1-3)GlcNAc(b1-2)Man(a1-6)]Man(b1-4)GlcNAc(b1-4)GlcNAc", "summary_of_the_method": "as §1"}, "[16]": {"molecular_target": "Fuc(a1-2)[Gal(a1-3)]Gal(b1-3)GlcNAc(b1-2)Man(a1-3)[Fuc(a1-2)[Gal(a1-3)]Gal(b1-3)GlcNAc(b1-2)Man(a1-6)]Man(b1-4)GlcNAc(b1-4)[Fuc(a1-6)]GlcNAc", "summary_of_the_method": "as §1"}, "[17]": {"molecular_target": "Fuc(a1-2)[Gal(a1-3)]Gal(b1-3)GlcNAc(b1-3)GalNAc", "summary_of_the_method": "as §1"}, "[18]": {"molecular_target": "Fuc(a1-2)[Gal(a1-3)]Gal(b1-3)GlcNAc(b1-6)GalNAc", "summary_of_the_method": "as §1"}, "[19]": {"molecular_target": "Fuc(a1-2)[Gal(a1-3)]Gal(b1-4)Glc", "summary_of_the_method": "as §1"}, "[20]": {"molecular_target": "Fuc(a1-2)[Gal(a1-3)]Gal(b1-4)GlcNAc", "summary_of_the_method": "as §1"}, "[21]": {"molecular_target": "Fuc(a1-2)[Gal(a1-3)]Gal(b1-4)GlcNAc(b1-2)Man", "summary_of_the_method": "as §1"}, "[22]": {"molecular_target": "Fuc(a1-2)[Gal(a1-3)]Gal(b1-4)GlcNAc(b1-2)Man(a1-3)[Fuc(a1-2)[Gal(a1-3)]Gal(b1-4)GlcNAc(b1-2)Man(a1-6)]Man(b1-4)GlcNAc(b1-4)GlcNAc", "summary_of_the_method": "as §1"}, "[23]": {"molecular_target": "Fuc(a1-2)[Gal(a1-3)]Gal(b1-4)GlcNAc(b1-2)Man(a1-3)[Fuc(a1-2)[Gal(a1-3)]Gal(b1-4)GlcNAc(b1-2)Man(a1-6)]Man(b1-4)GlcNAc(b1-4)[Fuc(a1-6)]GlcNAc", "summary_of_the_method": "as §1"}, "[24]": {"molecular_target": "Fuc(a1-2)[Gal(a1-3)]Gal(b1-4)GlcNAc(b1-3)GalNAc", "summary_of_the_method": "as §1"}, "[25]": {"molecular_target": "Fuc(a1-2)[Gal(a1-3)]Gal(b1-4)GlcNAc(b1-3)[Fuc(a1-2)[Gal(a1-3)]Gal(b1-4)GlcNAc(b1-6)]GalNAc", "summary_of_the_method": "as §1"}, "[26]": {"molecular_target": "Fuc(a1-2)[Gal(a1-3)]Gal(b1-4)GlcNAc(b1-6)GalNAc", "summary_of_the_method": "as §1"}, "[27]": {"molecular_target": "Fuc(a1-2)[Gal(a1-3)]Gal(b1-4)[Fuc(a1-3)]Glc", "summary_of_the_method": "as §1"}, "[28]": {"molecular_target": "Fuc(a1-2)[Gal(a1-3)]Gal(b1-4)[Fuc(a1-3)]GlcNAc", "summary_of_the_method": "as §1"}, "[29]": {"molecular_target": "Fuc(a1-2)[Gal(a1-3)]Gal(b1-4)[Fuc(a1-3)]GlcNAc(b1-3)GalNAc", "summary_of_the_method": "as §1"}, "[30]": {"molecular_target": "Fuc(a1-2)[Gal(a1-4)]Gal(b1-4)GlcNAc", "summary_of_the_method": "as §1"}, "[31]": {"molecular_target": "Fuc(a1-2)[GalNAc(a1-3)]Gal", "summary_of_the_method": "as §1"}, "[32]": {"molecular_target": "Fuc(a1-2)[GalNAc(a1-3)]Gal(b1-3)GalNAc(a1-3)[Fuc(a1-2)]Gal(b1-4)GlcNAc", "summary_of_the_method": "as §1"}, "[33]": {"molecular_target": "Fuc(a1-2)[GalNAc(a1-3)]Gal(b1-3)GalNAc(b1-3)Gal(a1-4)Gal(b1-4)Glc", "summary_of_the_method": "as §1"}, "[34]": {"molecular_target": "Fuc(a1-2)[GalNAc(a1-3)]Gal(b1-3)GlcNAc", "summary_of_the_method": "as §1"}, "[35]": {"molecular_target": "Fuc(a1-2)[GalNAc(a1-3)]Gal(b1-3)GlcNAc(b1-2)Man(a1-3)[Fuc(a1-2)[GalNAc(a1-3)]Gal(b1-3)GlcNAc(b1-2)Man(a1-6)]Man(b1-4)GlcNAc(b1-4)GlcNAc", "summary_of_the_method": "as §1"}, "[36]": {"molecular_target": "Fuc(a1-2)[GalNAc(a1-3)]Gal(b1-3)GlcNAc(b1-2)Man(a1-3)[Fuc(a1-2)[GalNAc(a1-3)]Gal(b1-3)GlcNAc(b1-2)Man(a1-6)]Man(b1-4)GlcNAc(b1-4)[Fuc(a1-6)]GlcNAc", "summary_of_the_method": "as §1"}},
  "note": "This is one part of the list.",
  "data": [
    {"binder": "B1", "values": [
      {"measurement": "glycan array binding signal (z-score)", "setting": "[1]", "value": -0.176},
      {"measurement": "glycan array binding signal (z-score)", "setting": "[2]", "value": -0.421},
      {"measurement": "glycan array binding signal (z-score)", "setting": "[3]", "value": -0.111},
      {"measurement": "glycan array binding signal (z-score)", "setting": "[4]", "value": -0.21},
      {"measurement": "glycan array binding signal (z-score)", "setting": "[5]", "value": -0.405},
      {"measurement": "glycan array binding signal (z-score)", "setting": "[6]", "value": -0.329},
      {"measurement": "glycan array binding signal (z-score)", "setting": "[7]", "value": -0.447},
      {"measurement": "glycan array binding signal (z-score)", "setting": "[8]", "value": 0.826},
      {"measurement": "glycan array binding signal (z-score)", "setting": "[9]", "value": -0.354},
      {"measurement": "glycan array binding signal (z-score)", "setting": "[10]", "value": 0.044},
      {"measurement": "glycan array binding signal (z-score)", "setting": "Fuc(a1-2)Gal6S(b1-4)Glc", "value": -0.637},
      {"measurement": "glycan array binding signal (z-score)", "setting": "[11]", "value": 0.241},
      {"measurement": "glycan array binding signal (z-score)", "setting": "Fuc(a1-2)[Gal(a1-3)]Gal", "value": -0.434},
      {"measurement": "glycan array binding signal (z-score)", "setting": "[12]", "value": -0.207},
      {"measurement": "glycan array binding signal (z-score)", "setting": "[13]", "value": -0.254},
      {"measurement": "glycan array binding signal (z-score)", "setting": "[14]", "value": 0.022},
      {"measurement": "glycan array binding signal (z-score)", "setting": "[15]", "value": -0.007},
      {"measurement": "glycan array binding signal (z-score)", "setting": "[16]", "value": -0.379},
      {"measurement": "glycan array binding signal (z-score)", "setting": "[17]", "value": 0.428},
      {"measurement": "glycan array binding signal (z-score)", "setting": "[18]", "value": 2.09},
      {"measurement": "glycan array binding signal (z-score)", "setting": "[19]", "value": -0.379},
      {"measurement": "glycan array binding signal (z-score)", "setting": "[20]", "value": -0.263},
      {"measurement": "glycan array binding signal (z-score)", "setting": "[21]", "value": -0.043},
      {"measurement": "glycan array binding signal (z-score)", "setting": "[22]", "value": 0.114},
      {"measurement": "glycan array binding signal (z-score)", "setting": "[23]", "value": 0.061},
      {"measurement": "glycan array binding signal (z-score)", "setting": "[24]", "value": -0.382},
      {"measurement": "glycan array binding signal (z-score)", "setting": "[25]", "value": -0.397},
      {"measurement": "glycan array binding signal (z-score)", "setting": "[26]", "value": -0.147},
      {"measurement": "glycan array binding signal (z-score)", "setting": "[27]", "value": -0.153},
      {"measurement": "glycan array binding signal (z-score)", "setting": "[28]", "value": -0.212},
      {"measurement": "glycan array binding signal (z-score)", "setting": "[29]", "value": -0.285},
      {"measurement": "glycan array binding signal (z-score)", "setting": "[30]", "value": -0.387},
      {"measurement": "glycan array binding signal (z-score)", "setting": "[31]", "value": 0.334},
      {"measurement": "glycan array binding signal (z-score)", "setting": "[32]", "value": -0.395},
      {"measurement": "glycan array binding signal (z-score)", "setting": "[33]", "value": -0.348},
      {"measurement": "glycan array binding signal (z-score)", "setting": "[34]", "value": -0.192},
      {"measurement": "glycan array binding signal (z-score)", "setting": "[35]", "value": 1.58},
      {"measurement": "glycan array binding signal (z-score)", "setting": "[36]", "value": 0.218}
    ]}
  ]
}
